Target: C3b (human, UniProt P01024 23-667; P01024 part only)
Assay: cryo-EM structure

Sequence of UniProt P01024 (P01024 23-667, chain 1 of 2): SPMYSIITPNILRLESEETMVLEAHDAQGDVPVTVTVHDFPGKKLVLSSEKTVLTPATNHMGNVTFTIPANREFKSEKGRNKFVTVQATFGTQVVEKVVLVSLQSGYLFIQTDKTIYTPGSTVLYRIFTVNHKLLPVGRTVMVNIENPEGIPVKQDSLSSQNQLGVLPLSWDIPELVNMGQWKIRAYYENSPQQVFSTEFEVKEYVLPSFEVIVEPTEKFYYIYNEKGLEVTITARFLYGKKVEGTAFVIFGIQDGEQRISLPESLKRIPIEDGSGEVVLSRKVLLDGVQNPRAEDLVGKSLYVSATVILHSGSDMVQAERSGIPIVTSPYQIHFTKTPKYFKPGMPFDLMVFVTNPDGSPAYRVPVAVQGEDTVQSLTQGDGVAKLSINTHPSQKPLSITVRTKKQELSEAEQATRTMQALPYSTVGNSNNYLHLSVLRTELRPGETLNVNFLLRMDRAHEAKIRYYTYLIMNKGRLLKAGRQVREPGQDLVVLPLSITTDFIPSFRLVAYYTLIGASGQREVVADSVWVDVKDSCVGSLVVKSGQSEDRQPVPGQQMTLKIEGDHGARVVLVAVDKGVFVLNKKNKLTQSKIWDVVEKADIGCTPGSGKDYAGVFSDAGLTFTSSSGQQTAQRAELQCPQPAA
Sequence of UniProt P01024 (P01024 749-1663, chain 2 of 2): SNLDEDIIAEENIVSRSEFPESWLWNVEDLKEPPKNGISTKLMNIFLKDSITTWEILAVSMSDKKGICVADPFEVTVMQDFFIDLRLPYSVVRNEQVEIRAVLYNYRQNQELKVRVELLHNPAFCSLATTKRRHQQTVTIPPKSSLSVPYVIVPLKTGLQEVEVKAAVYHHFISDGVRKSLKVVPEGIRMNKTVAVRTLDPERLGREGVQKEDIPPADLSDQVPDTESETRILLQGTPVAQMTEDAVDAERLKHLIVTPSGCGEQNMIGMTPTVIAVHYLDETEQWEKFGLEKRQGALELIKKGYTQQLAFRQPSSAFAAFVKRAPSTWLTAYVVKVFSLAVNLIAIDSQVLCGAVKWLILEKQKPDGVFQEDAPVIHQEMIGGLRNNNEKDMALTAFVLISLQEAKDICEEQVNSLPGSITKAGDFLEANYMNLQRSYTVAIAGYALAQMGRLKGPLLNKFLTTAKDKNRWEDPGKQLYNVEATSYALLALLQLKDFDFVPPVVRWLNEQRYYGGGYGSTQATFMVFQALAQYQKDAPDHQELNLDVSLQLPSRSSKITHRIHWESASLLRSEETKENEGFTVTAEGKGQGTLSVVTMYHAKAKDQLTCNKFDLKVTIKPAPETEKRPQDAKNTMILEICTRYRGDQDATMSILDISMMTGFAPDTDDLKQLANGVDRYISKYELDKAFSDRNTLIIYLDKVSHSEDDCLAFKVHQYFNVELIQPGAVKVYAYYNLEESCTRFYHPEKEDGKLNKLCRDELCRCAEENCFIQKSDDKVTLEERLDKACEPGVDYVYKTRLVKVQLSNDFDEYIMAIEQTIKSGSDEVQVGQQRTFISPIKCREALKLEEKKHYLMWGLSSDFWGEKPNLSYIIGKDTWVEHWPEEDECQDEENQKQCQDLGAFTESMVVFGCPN

B1: Bb (from FB(S699A)) (domain or fragment)
chain: KIVLDPSGSMNIYLVLDGSDSIGASNFTGAKKCLVNLIEKVASYGVKPRYGLVTYATYPKIWVKVSEADSSNADWVTKQLNEINYEDHKLKSGTNTKKALQAVYSMMSWPDDVPPEGWNRTRHVIILMTDGLHNMGGDPITVIDEIRDLLYIGKDRKNPREDYLDVYVFGVGPLVNQVNINALASKKDNEQHVFKVKDMENLEDVFYQMIDESQSLSLCGMVWEHRKGTDYHKQPWQAKISVIRPSKGHESCMGAVVSEYFVLTAAHCFTVDDKEHSIKVSVGGEKRDLEIEVVLFHPNYNINGKKEAGIPEFYDYDVALIKLKNKLKYGQTIRPICLPCTEGTTRALRLPPTTTCQQQKEELLPAQDIKALFVSEEEKKLTRKEVYIKNGDKKGSCERDAQYAPGYDKVKDISEVVTPRFLCTGGVSPYADPNTCRGDAGGPLIVHKRSRFIQVGVISWGVVDVCKNQKRQKQVPAHARDFHINLFQVLPWLKEKLQDEDLGFL
B1: binds.

From publication PMC12922740 (Science Advances, 2026)
